# In the supplement of paper PMC10126150:
# Sequences with one replicate were seen in a single cluster, so their values are uncertain.
# Test system: ATP
# Assay: switch fluorescence ratio, 500 uM ATP over buffer (Cy3 cluster intensity, sum of 5 cycles each) (fold (ratio)); higher = stronger signal-on switching upon ATP binding; sequences stand for … in TCGTCGGCAGCGTCAGATGTGTATAAGAGACAGTTTTTTTTTTTTTTTTTTTTTTTTT…TC
# Conditions: aptamer strand: ATP DNA aptamer (quencher-CACCTGGGGGAGTATTGCGGAGGAAGG + anchor), 100 nM annealed; ATP concentration: 500 uM; one replicate
# How it was run: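 Per cluster, summed Cy3 intensity from the target cycles was divided by that from the buffer cycles to give the fluorescence ratio, then averaged per switch-domain sequence. Clusters outside 100-1000 RFU were excluded. The Cy3-labelled switching-strand clusters, on a modified Illumina MiSeq flow-cell, were annealed to 100 nM quencher-labelled ATP aptamer and imaged in selection buffer, then after 15 min with 500 uM ATP at 22 °C, for five cycles with NaOH stripping and re-annealing between them.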
# 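Note: ATP exposure 15 min at 22 °C before imaging.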
row,Sequence,switch fluorescence ratio
1,AGACTGGCGT,1.02
2,TACCCAGCT,1.04
3,GTTATTTCT,0.99
4,ATCTAGAGGC,1.01
5,AATTTTTATG,0.911
6,CCTCTACGGG,1.12
7,AGTGATCGGG,1.02
8,CTTCGCGGCC,3.15
9,AGGGGCGCTG,0.935
10,GAAGAATTGG,0.995
11,CTGTTGATGT,1
12,CACCGGAACC,1.78
13,TTGGGCAAAG,0.97
14,GATACTGCCT,1.07
15,GAATCCCGCA,1.96
16,GGCTGCCATC,0.959
17,AATTTTTGGA,0.998
18,ATGTCCAGTG,1.21
19,GTATGTCGG,0.989
20,TTACTGATGC,1.05
21,CGCAGTCCGC,1.68
22,GCAATCACTA,1.38
23,CGAGGTCACC,1.04
24,ACCTGGGAA,0.884
25,TCTTCCATGG,1.03
26,CTGGCAAATC,2.16

row,Sequence,switch fluorescence ratio
1,TTTTCGAGTA,0.987
2,TCCAGGCCTT,0.996
3,TGTTTTTACA,0.965
4,ACTCTCGGGT,1.05
5,ACGTGTAGTT,1.02
6,GCATCGGAAA,0.993
7,CGTGTGTCCT,0.955
8,TACCAGGTCG,1.14
9,TAGACCAGTC,1.04
10,GTTTGTCTGG,1.06
11,TAAGCTGTTT,0.986
12,GCGTTAGTAA,0.988
13,TATAATTAAG,0.991
14,CTGGTGGAAG,0.946
15,ATCCACCGGT,1.11
16,CAGAGTGC,1.05
17,CCCAAGGCCC,1.03
18,TCTGCACCGC,1.02
19,TTTACACATT,1.13
20,GGTTGTATAC,1.03
21,AAGTAAATAT,1.01
22,TGAAGTTGCA,1.03
23,AGCTAGTTTC,1.02
24,GGATGATTG,0.903
25,ACCTGACCTA,1.21
26,GACCGGGACT,0.985

row,Sequence,switch fluorescence ratio
1,AAGATCTCAG,0.99
2,GAAATTGGTC,1.04
3,CGCGTTACTC,3.18
4,CGTGTAGCTA,1.05
5,CTTCTCTGGA,1.03
6,ATATACGATA,1.09
7,CACGGCCGAG,1
8,TCAATGTATC,1.01
9,GGGTTTAAAC,1.02
10,TTGTGGGAG,1.02
11,TCGCCCCGG,1.16
12,ATCACATCA,1.06
13,GGTGGGCACC,0.997
14,TTTTGGTGCC,1.1
15,TGCAATCAT,1.15
16,CTTATTTTTG,0.981
17,AACCCCGTGG,1.04
18,TTTCATCTAA,0.995
19,AGCGCCGTAA,1.02
20,CTGCGTTTAT,1.01
21,ACACTGCAAC,2.4
22,CCCGATCGGA,0.965
23,GTTCATCTGC,1.1
24,CCCCGGTATC,4.81
25,GACAGGAGGA,0.983
26,TATGGGTCAG,0.99

row,Sequence,switch fluorescence ratio
1,CGAGGCCAGG,2.66
2,TATCAATTG,1.03
3,AGAAACCGCA,2.82
4,TGAAAATTGG,0.962
5,GTGATCTTGG,1.02
6,CACCCTGGGG,1.05
7,GATCTATGAC,1.01
8,AGTTATTAGA,1.04
9,AGGTGCTTTT,0.997
10,GGCAGAAAAG,0.971
11,CCGTAGACAG,2.02
12,GTCATTTCAT,0.992
13,CAGTCTAGGT,0.983
14,ACTGGAGTGG,0.979
15,ATGTTTTTAA,1.01
16,ACGAGGTGTG,1.06
17,CATGGGCGCC,0.968
18,GGTATTGCTA,0.974
19,TATGGTCCAA,0.991
20,TGTAAATCTA,0.989
21,GGGCAAGACT,2.85
22,TAAGGGCCCC,0.981
23,ACCGTGTGAT,1.04
24,GTAGTGCGTC,1.06
25,CTACGATAGA,1.05
26,CGATAGGCTA,1.01

row,Sequence,switch fluorescence ratio
1,ATTCCATTCG,1.14
2,TAAGAAACAA,0.967
3,TCTTTGAGTA,0.992
4,GTGGTTGTTA,0.99
5,GCCGGGGGGT,1
6,ATCGGCACCG,1
7,CACGGCGAAC,1.56
8,ATCGTACTAG,1.03
9,GCCGTAGGGT,1.01
10,GAAAGTAGGT,0.966
11,TGGTCAACGG,0.983
12,GGGAGCATGG,1.01
13,CGGCTATTTG,1.02
14,ACATGGGACG,0.997
15,TAACCAGC,1.01
16,TTATAGTAAG,1.01
17,TGTTTTGA,1.02
18,ACCATGTTGA,0.953
19,GCAAATGCTT,1.05
20,TTATCCTCAC,1.07
21,AGTGATGATG,0.986
22,GACAGGTTAC,1.08
23,ATATATACG,1.07
24,ACGGTCAAAT,1.1
25,CTTTTCCGTT,1.02
26,TGTACGTGGT,1.01

row,Sequence,switch fluorescence ratio
1,CCAGCGCTGG,1
2,AAGGAGAGTT,1
3,AGGAGTTCCA,1.04
4,GAATTTTCGA,1.01
5,AGCCCCGCGA,1.47
6,ACGTATTGCC,1.08
7,CAGTAACAG,1.01
8,GCTTCAAAT,1.01
9,ATCGCCGTCG,1.01
10,GAGACGTCAG,1.19
11,ATAGTCTCGC,0.991
12,GACCTGAGTG,1
13,ATAGTGCTGG,1.01
14,TGCTCTCAGC,0.983
15,TAAAAATATC,0.975
16,TCGCAGTCGT,1.04
17,CTTCGGCTAC,6.05
18,AGGTGGATCA,0.987
19,ATCGGGCGCC,1
20,ATATCATTG,1.05
21,TGGCGGCTAC,1.09
22,AGAGTGTCT,0.999
23,TCAGATCGT,0.93
24,TTGGATGACT,0.992
25,AGTGGAATAG,1.03
26,GTTGCCTTGG,1.05

row,Sequence,switch fluorescence ratio
1,AGATTTAGGA,0.982
2,ATACTTGAT,0.995
3,TTTAAACCAC,1.04
4,TTACGTGGCT,0.986
5,AGGGAGTTGT,0.965
6,ACTGTAGGCG,0.972
7,CCCTGAAACT,1.04
8,TTTTGAAGA,1.01
9,CGTCCGAGGA,1.07
10,TGAATCGCCA,1.04
11,AAAATCCGA,0.989
12,TTGTAATCGG,0.983
13,AAAGGAGCTA,1.07
14,TCTGATAAAA,1.04
15,AATTTTAGC,1.01
16,TGCCTGGTAA,0.965
17,CCTGAAGTT,1.01
18,TTTCGATCGT,1.01
19,ACATATGGCC,1.05
20,AAATGGGCCT,1.11
21,AAAGAGTACA,1.03
22,TCACCCCCTT,1.54
23,GGGTCGTCTG,0.991
24,TTGCCAGTTT,1.04
25,TGAGTAGCTA,0.975
26,TCAAGCAGGA,1.02

row,Sequence,switch fluorescence ratio
1,GATATTGTGT,0.997
2,GGACCTGGT,0.988
3,GGAATAGCAT,1.03
4,GGCATTGACG,1.12
5,ATGTCAGATC,1.02
6,GGTGTGGGTC,0.993
7,ATACTCGACG,1.07
8,GGCCCTGATC,1.05
9,GGCAATTTCT,1.1
10,GCCAGTTGGT,1.04
11,TGTAAAAATA,0.954
12,TATCGTGACT,1.01
13,CAATGCTATG,1.01
14,TACTTACCCG,1.27
15,TATTTAGTCA,0.926
16,ATAACCTTGG,1.02
17,GCCTGGGCTC,0.981
18,AAACAAAGG,0.977
19,ACATCCATTC,1.02
